Measurements published in PubChem BioAssay (NCATS).
Inconclusive results, whose numbers are uncertain, are shown with a selection of clear calls. For part of these data: No potency is given beside an inconclusive call; the fits are too rough. Activity calls are given as the source filed them. Calls follow the shape of the dose curve; as a rule, active = well fitted curve in the direction sought with a large enough effect; inconclusive = small, poorly fitted or top-dose-only effect, or another doubt; inactive = no such curve, though single readings can be large; an effect the other way counts as inactive or inconclusive.

Assays:
[1] = qHTS of pediatric cancer cell lines to identify multiple opportunities for drug repurposing: Primary screen for A673 cells (AID 1347092); settings: A673 Ewing sarcoma viability, CellTiter-Glo ATP luminescence, 48 h; activity change, negative = cytotoxic: at 46 µM (top of the series); also: nearly all actives have a fitted effect of over 45% in size; also: potency is read from the fitted curve at half-maximal effect; as to activity change, negative = cytotoxic: % is scaled to controls: 0 for no effect and ±100 for the full control effect
In short: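 A673 cells (500-1,000 cells/well in growth media) were pre-incubated 5 h at 37 degrees C, then exposed to compounds for 48 h. Viability was read as CellTiter-Glo luminescence; concentration-response curves came directly from the primary screen.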

[2] = qHTS of pediatric cancer cell lines to identify multiple opportunities for drug repurposing: Primary screen for BT-37 cells (AID 1347094); also: potency is read from the fitted curve at half-maximal effect;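 as to activity change, negative = cytotoxic: plate controls were DMSO for no effect and bortezomib for full effect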
In short: (§1)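 Readout: CellTiter-Glo luminescence, 48 h treatment. Controls DMSO (neutral) and bortezomib 2.3 µM final (positive). Potency and efficacy taken from primary-screen concentration-response curves.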

[3] = qHTS of pediatric cancer cell lines to identify multiple opportunities for drug repurposing: Primary screen for U-2 OS cells (AID 1347096); also: nearly all actives have a fitted effect of over 50% in size; also: potency is read from the fitted curve at half-maximal effect;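 as to activity change, negative = cytotoxic: plate controls were DMSO wells for no effect and bortezomib positive control wells for full effect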
In short: (§2)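 Viability after 48 h compound treatment at 37C, 500-1,000 cells/well, read as ATP luminescence with CellTiter-Glo. Primary screens used 11-point (MIPE, 0.78 nM-46 µM) or 8-point (NPC, 0.59 nM-46 µM) final concentrations; follow-up screens used 11-point dilutions.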

[4] = qHTS of pediatric cancer cell lines to identify multiple opportunities for drug repurposing: Primary screen for Saos-2 cells (AID 1347097); also: nearly all actives have a fitted effect of over 40% in size; also: potency is read from the fitted curve at half-maximal effect; as to activity change, negative = cytotoxic: % is scaled to controls: 0 for no effect and ±100 for the full control effect
In short: as §1

[5] = qHTS of pediatric cancer cell lines to identify multiple opportunities for drug repurposing: Primary screen for NB1643 cells (AID 1347099); also: nearly all actives have a fitted effect of over 50% in size; also: potency is read from the fitted curve at half-maximal effect;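 as to activity change, negative = cytotoxic: plate controls were DMSO neutral control for no effect and bortezomib positive control for full effect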
In short: as §1

[6] = qHTS of pediatric cancer cell lines to identify multiple opportunities for drug repurposing: Primary screen for LAN-5 cells (AID 1347100); settings: LAN-5 neuroblastoma viability, CellTiter-Glo luminescence, 48 h; activity change, negative = cytotoxic: at 46 µM (top of the series); also: potency is read from the fitted curve at half-maximal effect
In short: as §2

[7] = qHTS of pediatric cancer cell lines to identify multiple opportunities for drug repurposing: Primary screen for Rh41 cells (AID 1347108); also: nearly all actives have a fitted effect of over 70% in size; also: potency is read from the fitted curve at half-maximal effect;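 as to activity change, negative = cytotoxic: luminescence drop marks cytotoxic hits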
In short: as §1

[8] = qHTS of pediatric cancer cell lines to identify multiple opportunities for drug repurposing: Primary screen for NB-EBc1 cells (AID 1347095);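 also: plate controls were DMSO neutral control for no effect and bortezomib for full effect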
In short: as §1

[9] = qHTS of pediatric cancer cell lines to identify multiple opportunities for drug repurposing: Primary screen for OHS-50 cells (AID 1347103); also: nearly all actives have a fitted effect of over 40% in size; also: potency is read from the fitted curve at half-maximal effect;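 as to activity change, negative = cytotoxic: plate controls were DMSO neutral control for no effect and bortezomib positive control for full effect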
In short: (§3)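 Cells (500-1,000/well) rested 5 h, then received compounds for 48 h; metabolically active cells were measured by CellTiter-Glo luminescence. Final concentrations spanned up to 46 µM (MIPE, 11-point) or 0.59 nM-46 µM (NPC, 8-point) in primary screens, 11-point in follow-ups.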

[10] = qHTS of pediatric cancer cell lines to identify multiple opportunities for drug repurposing: Primary screen for SK-N-SH cells (AID 1347098); also: nearly all actives have a fitted effect of over 65% in size; also: potency is read from the fitted curve at half-maximal effect; as to activity change, negative = cytotoxic: % is scaled to controls: 0 for no effect and ±100 for the full control effect
In short: as §3

[11] = qHTS of pediatric cancer cell lines to identify multiple opportunities for drug repurposing: Primary screen for Rh18 cells (AID 1347102); also: nearly all actives have a fitted effect of over 65% in size; also: potency is read from the fitted curve at half-maximal effect; as to activity change, negative = cytotoxic: % is scaled to controls: 0 for no effect and ±100 for the full control effect
In short: as §2

[12] = qHTS of pediatric cancer cell lines to identify multiple opportunities for drug repurposing: Primary screen for RD cells (AID 1347104); also: potency is read from the fitted curve at half-maximal effect; nearly all actives have a fitted effect of over 55% in size
In short: as §1

[13] = qHTS of pediatric cancer cell lines to identify multiple opportunities for drug repurposing: Primary screen for MG 63 (6-TG R) cells (AID 1347105); settings: MG 63 (6-TG R) viability, CellTiter-Glo, 48 h; activity change, negative = cytotoxic: at 46 µM (top of the series); also: potency is read from the fitted curve at half-maximal effect; nearly all actives have a fitted effect of over 50% in size
In short: as §1

[14] = qHTS of pediatric cancer cell lines to identify multiple opportunities for drug repurposing: Primary screen for Rh30 cells (AID 1347107); also: potency is read from the fitted curve at half-maximal effect; nearly all actives have a fitted effect of over 75% in size
In short: as §2

[15] = qHTS of pediatric cancer cell lines to identify multiple opportunities for drug repurposing: Primary screen for BT-12 cells (AID 1347101); also: nearly all actives have a fitted effect of over 25% in size; also: potency is read from the fitted curve at half-maximal effect;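 as to activity change, negative = cytotoxic: plate controls were DMSO for no effect and bortezomib positive control for full effect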
In short: as §3

[16] = qHTS of pediatric cancer cell lines to identify multiple opportunities for drug repurposing: Confirmatory screen for NB1643 cells (AID 1347109); settings: NB1643 neuroblastoma cell viability; activity change, negative = cytotoxic: at 45.9 µM (top of the series); also: potency is read from the fitted curve at half-maximal effect; nearly all actives have a fitted effect of over 45% in size
In short: as §2
Tags tell the direction and shape of the fitted curve.

## CN1CCN(c2ccc3nc(-c4c(N)c5c(F)cccc5[nH]c4=O)[nH]c3c2)CC1
[1]
  Potency: active: 14.8 µM
[2]
  Potency: active: 15.3 µM
[3]
  Potency: active: 18.7 µM
[4]
  Potency: active: 5.9 µM
[5]
  Potency: active: 16.6 µM
[6]
  Potency: active: 4.69 µM
[7]
  Potency: inconclusive [cytotoxic, partial curve]

## CCOC(=O)[C@@H](N)CCC(=O)N[C@@H](CSCc1ccccc1)C(=O)N[C@@H](C(=O)OCC)c1ccccc1
[1]
  Potency: inconclusive [cytotoxic, single point]
[8]
  Potency: inactive
[5]
  Potency: inactive
[9]
  Potency: inactive

## COc1cc(C=CC(=O)O)ccc1O
[1]
  Potency: inactive
[4]
  Potency: inactive
[10]
  Potency: inactive
[5]
  Potency: inactive
[9]
  Potency: inconclusive [cytotoxic, partial curve, poor fit]

## C[C@H]1O[C@@H](n2cc(F)c(=O)[nH]c2=O)[C@H](O)[C@H]1O
[1]
  Potency: inconclusive [cytotoxic, partial curve, poor fit]
[2]
  Potency: inconclusive [cytotoxic, partial curve]
[10]
  Potency: inconclusive [cytotoxic, single point]
[11]
  Potency: inactive
[12]
  Potency: inconclusive [cytotoxic, partial curve]
[13]
  Potency: inconclusive [cytotoxic, single point]
[14]
  Potency: inconclusive [cytotoxic, partial curve, poor fit]
[7]
  Potency: inconclusive [cytotoxic, partial curve]

## C[C@@H](O)[C@H]1C(=O)N2C(C(=O)OCOC(=O)C(C)(C)C)=C(SC3CN(C4=NCCS4)C3)[C@H](C)[C@H]12
[1]
  Potency: inconclusive [cytotoxic, single point]
[2]
  Potency: inactive
[9]
  Potency: inactive
[7]
  Potency: inactive

## CCCCn1c(=O)n(Cc2ccccc2F)c(=O)c2[nH]c(Cc3ccc(NC(C)=O)cc3)nc21
[1]
  activity change, negative = cytotoxic: inconclusive: -45.6% [cytotoxic]
[3]
  Potency: inactive
[15]
  Potency: inconclusive [cytotoxic, single point]
[9]
  Potency: inconclusive [cytotoxic, partial curve]
[12]
  Potency: inconclusive [cytotoxic, partial curve]
[14]
  Potency: inconclusive [cytotoxic, partial curve, poor fit]
[7]
  Potency: inconclusive [cytotoxic, partial curve, poor fit]

## CC=C1C2C=C(C)CC1(N)c1ccc(=O)[nH]c1C2 (stereo not given)
[1]
  Potency: inactive
[9]
  Potency: inactive

## O=C(O)[C@H](Cc1c[nH]c2ccccc12)N1C(=O)c2ccccc2C1=O
[1]
  Potency: inconclusive [cytotoxic, full curve]
[10]
  Potency: inconclusive [cytotoxic, single point]
[5]
  Potency: inconclusive [cytotoxic, single point]
[15]
  Potency: inactive
[9]
  Potency: inconclusive [cytotoxic, partial curve]

## Cn1cnc(=N)c2[nH]cnc21
[1]
  Potency: active: 0.187 µM
[3]
  Potency: active: 2.35 µM
[4]
  Potency: active: 0.743 µM
[10]
  Potency: active: 1.92 µM
[5]
  Potency: active: 0.166 µM
[9]
  Potency: active: 0.109 µM
[14]
  Potency: active: 14.8 µM
[7]
  Potency: active: 0.469 µM
[16]
  Potency: inconclusive [rising, full curve, poor fit]

## O=C(Nc1nnc(-c2ccco2)o1)c1cc(-c2ccccc2)nc2ccccc12
[1]
  Potency: inconclusive [cytotoxic, full curve]
[2]
  Potency: active: 27.3 µM
[3]
  Potency: inconclusive [cytotoxic, single point]
[4]
  Potency: inconclusive [cytotoxic, full curve]
[10]
  Potency: active: 30.4 µM
[11]
  Potency: inconclusive [cytotoxic, partial curve, poor fit]
[12]
  Potency: inconclusive [cytotoxic, partial curve]
[13]
  Potency: active: 14.8 µM
[7]
  Potency: inconclusive [cytotoxic, partial curve]
